Data published in ChEMBL document CHEMBL1201862, “PubChem BioAssay data set” (2004).
Where “and” joins values, the source holds several entries; their conditions need not be identical. Equal values may be shown once.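 Where inhibition never reached the appropriate level, the endpoint shown equals the highest concentration tested. Otherwise, values were interpolated linearly from a five-concentration, 48-hour dose response in 96-well plates. Abbreviation: GI50, concentration required for 50% inhibition of growth.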 Calls of active or inactive are those of the source. No stated cut-off is given here; in the data, active = GI50 up to about 1.1 µM and inactive = higher. Peptide text beside a SMILES is read from it.

Each compound was assayed on NCI-H322M (assay: NCI-60 cell line screen, 48 h).

| Structure (SMILES) | GI50 |
| --- | --- |
| CCOC(=O)CCC(NC(=O)c1ccc(NCc2ccc3nc(-c4ccccc4)c(Cl)nc3c2)c2ccccc12)C(=O)OCC (stereo unspecified) | inactive: > 100 µM |
| COc1ccc(/N=C(\C)c2ccncc2)cc1 | inactive: > 100 µM |
| O=C1C(Br)=C(c2ccccc2)O/C1=C/C(=O)c1ccc(Br)cc1 | inactive: > 100 µM |
| C/C=C1\CN2CCc3c([nH]c4ccccc34)C2CC1CCO (stereo unspecified) | inactive: > 100 µM |
| CCOC(=O)CCc1c(C)c2ccc(O)cc2oc1=O | inactive: > 100 µM |
| NC(=O)c1ccc(S(=O)(=NS(=O)(=O)c2ccccc2)c2ccc(C(N)=O)cc2)cc1 | inactive: > 100 µM |
| CC(=O)C1=C(C)N2C(=NC3=C(CCc4ccccc43)C2c2cccc(Br)c2)S1 (stereo unspecified) | inactive: > 100 µM |
| CSc1cc(Cl)c(C(=O)Nc2ccccc2)cc1S(=O)(=O)n1ccnc1O | inactive: > 100 µM |
| COc1cc(C2c3cc4c(cc3OC(NNc3ccccc3)C2C)OCO4)cc(OC)c1O (stereo unspecified) | inactive: 4.56 µM |
| Cc1nc2c(o1)/C(=N\c1ccccc1)c1nc(C)oc1/C2=N/c1ccccc1 | inactive: 28.5 µM |
| CCOC(=O)CSc1nc(-c2ccccc2)c(C#N)c(=O)[nH]1 | inactive: > 100 µM |
| COc1cccc(-n2c(N)c(-c3nc4cc(C(F)(F)F)ccc4s3)c3ccc([N+](=O)[O-])cc3c2=O)c1 | inactive: > 100 µM |
| CCOC(=O)[C@@H]1ON2O[C@H](OC3CCCCC3c3ccccc3)C[C@H]3OC(=O)[C@@H]1C32 (stereo partly specified) | inactive: 80 µM |
| COc1ccc(NC2C(=O)C3(C)CCC2C3(C)C)cc1 (stereo unspecified) | inactive: > 100 µM |
| COc1ccc(C[C@H](N)C(=O)N2C[C@@H](CO)C[C@@H](n3cnc4c(N(C)C)ncnc43)C2)cc1 | inactive: > 100 µM |
| CC1NS(=O)(=O)N(C)C1=O (stereo unspecified) | inactive: > 100 µM |
| CN1CCCCC(C(O)(c2ccccc2)c2ccccc2)C1=O (stereo unspecified) | inactive: > 100 µM |
| O=C(Nc1nn(C(=O)c2cccnc2)c(=O)s1)c1ccc(Cl)cc1 | inactive: > 100 µM |
| COc1ccc(CCCNC(=O)Cc2cc(OC)c(OC)cc2CO)cc1OC | inactive: > 100 µM |
| OCC(CO)C1c2cccc3ccc4cccc1c4c23 | inactive: > 100 µM |
| CC(=O)OCC1OC(n2c(-c3ccccc3)cc(-c3ccco3)c(C#N)c2=O)C(OC(C)=O)C(OC(C)=O)C1OC(C)=O (stereo unspecified) | inactive: 59.8 µM and inactive: 37.7 µM |
| O=C(Oc1c(I)ccccc1=O)c1ccc([N+](=O)[O-])cc1 | inactive: 55.6 µM |
| CC(=O)N1C(c2[nH]c3ccccc3c2Cc2ccccc2)CCN1c1ccccc1 (stereo unspecified) | inactive: > 10 µM |

| Structure (SMILES) | GI50 |
| --- | --- |
| NC(N)=NCCC[C@H](N)C(=O)NCC(=O)N[C@@H](CC(=O)O)c1ncc(NC(=O)C(F)(F)F)o1 | inactive: > 25 µM |
| CCOC(=O)/C1=C(\C)N(Cc2ccccc2)C(=O)c2ccccc2C(=O)c2c(O)ccc(O)c21 | inactive: 90.6 µM |
| O=C1C=CC(=O)c2c1ccc1c3ccccc3n(CCCCCn3c4ccccc4c4ccc5c(c43)C(=O)C=CC5=O)c21 | inactive: > 100 µM |
| O=C1N/C(=N/N=C\C(O)C(O)C(O)C(O)CO)N/C1=C\c1ccc(Cl)cc1 (stereo unspecified) | inactive: 23.4 µM |
| COC1CC(C)(N)C(O)C(C)O1 (stereo unspecified) | inactive: > 100 µM |
| S=c1nc(Nc2ccccc2)c2c3c(sc2[nH]1)CCCC3 | inactive: > 100 µM |
| COC(=O)c1cc(C#N)[nH]c1-c1ccc(C)s1 | inactive: 51.3 µM |
| C=C1CC(C#N)(C#N)[C@@H]2CC3CCCC3[C@H]12.C=C1CC(C#N)(C#N)[C@H]2C3CCCC3C[C@@H]12 (stereo partly specified) | inactive: 42.3 µM |
| CC(=O)NC(CO)C(=O)NC(Cc1ccc(O)cc1)C(=O)NCC(N)=O (stereo not drawn) (Ac-Ser-Tyr-Gly-NH2; configuration not given here) | inactive: > 100 µM |
| O=C(O)/C(=C\c1ccccc1)Cc1ccccc1 | inactive: > 100 µM |
| COC(CN(C)C(=O)C(C)NC(=O)c1ccccc1)OC (stereo unspecified) | inactive: > 100 µM |
| O=C1C2C(C(=O)N1O)N(Cc1ccccc1)C(=O)N2Cc1ccccc1 (stereo unspecified) | inactive: > 100 µM |
| COc1ccccc1Cn1c2c(c3c(C(=O)NCCN(C)C)c(O)ccc31)C(=O)c1ccccc1C2=O | inactive: 1.77 µM |
| Cc1cccc(C)c1NC(=O)/C(=N/NC(N)=S)C(C)C(=O)c1ccc(Cl)cc1 (stereo unspecified) | inactive: > 100 µM |
| CCOC(=O)c1cc(=O)c2ccnc3c2n1CCS3 | inactive: > 100 µM |
| O=C(CCl)N1CCN(c2ccccn2)CC1 | inactive: 21.6 µM |
| CN(C)C(=N)c1ccccc1 | inactive: > 100 µM |
| CCOC(=O)c1c2ccccc2n2c(=O)n(-c3ccccc3)nnc12 | inactive: > 100 µM |
| COc1cc(OC)c2c(C)cc(=O)oc2c1 | inactive: 44.9 µM |
| COc1cc(C(O)c2ccc3c(c2)OCO3)cc(OC)c1OC (stereo unspecified) | inactive: > 100 µM |
| COc1ccc(/C=N\O[Si](C)(C)C(C)(C)C)cc1O[Si](C)(C)C(C)(C)C | inactive: 15.3 µM |
| CCOC(=O)c1cccnc1C(OC(C)=O)OC(C)=O | inactive: > 100 µM |
| Cc1cc2nc3c(C#N)c4c(c(Cl)n3c2cc1C)CCC4 | inactive: > 100 µM |
